The whole screen tested about 52,000 compounds, of which about 4,300 (8.3%) were called active. Rule as the data show it: active = survival mostly below about 52% (no sharp cut-off); inactive = mostly above about 56%. This is one part of the list.
These compounds were tested on DeltatarO mutant (assay: growth inhibition of S. aureus wild type versus tarO mutant, primary screen, teichoic acid synthesis inhibitors, RN4220, OD600 (AID 463173)). Conditions: OD600, 18 h, hits give low values, screened at 18.75 µg/mL (by protocol).

Structure (SMILES)	survival
COc1ccc(CCNC(=O)C2CCN(c3nc4ccccc4nc3C(F)(F)F)CC2)c(OC)c1	inactive: 57%
Cc1ccc(OCC(=O)Nc2nc(-c3ccc(Br)cc3)ns2)cc1C	inactive: 110%
COc1ccc(CNc2nc3ccccc3c3nc(-c4ccccc4)nn23)cc1	active: 35%
O=C(O)c1ccc(NC(=S)N2CCCCC2)cc1	inactive: 81%
Cc1ccccc1OCC(=O)Nc1ccc2nc(SCc3ccccc3)sc2c1	inactive: 88%
CCc1ccccc1NC(=O)c1ccc(CN2C(=O)CCn3nc(C)cc32)cc1	inactive: 83%
COCCNC(=O)C1CCN(c2nc3ccccc3nc2C(F)(F)F)CC1	inactive: 105%
COc1cc2c(cc1OC)n(Cc1ccc([N+](=O)[O-])cc1)c(=O)n1nc(-c3ccccc3)nc21	inactive: 116%
COc1cc2c(cc1OC)C(COc1ccc3c(C)cc(=O)oc3c1)N(C(=O)c1ccccc1F)CC2 (configuration not stated)	inactive: 50%
CC(=O)N1c2ccccc2CC1C(=O)NCc1cccc(Cl)c1 (configuration not stated)	inactive: 94%
COc1ccc(-c2cc(C)no2)cc1S(=O)(=O)N1CCN(c2ccccc2F)CC1	inactive: 102%
Cc1cccc(NC(=O)CSc2nc(-c3ccccc3Cl)nc3c2Cc2c(CO)cnc(C)c2O3)c1C	inactive: 117%
COc1ccc(CCNc2nc3c(-c4cccc(F)c4)nnn3c3ccccc23)cc1OC	inactive: 60%
CN1C(=O)C(Cc2ccccc2)NC1=S (configuration not stated)	inactive: 77%
CCOc1cccc(C2CC(=O)Nc3cc4c(cc32)OCCO4)c1 (configuration not stated)	inactive: 64%
Cc1ccc(NC(=O)CSc2nnc3[nH]c(=O)cc(-c4ccccc4)n23)cc1Cl	inactive: 77%
COCCCNC(=O)c1cn(CCOC)c(=O)c2c1c1ccccc1n2C	inactive: 96%
Cc1cc(C)c2[nH]c(=O)c(CN(CC3CCCO3)C(=O)NC3CCCCC3)cc2c1 (configuration not stated)	inactive: 97%
Cc1ccccc1CNC(=O)CN1C(=O)CSc2ccc(S(=O)(=O)N(C)C)cc21	inactive: 78%

Structure (SMILES)	survival
COc1ccc(NC(=O)c2c(NC(=O)COc3ccccc3)sc3c2CCC(C)C3)cc1 (configuration not stated)	inactive: 120%
O=C(Nc1ccccc1C(F)(F)F)c1ccc2oc(=O)c(S(=O)(=O)c3ccc(F)cc3)cc2c1	inactive: 89%
O=C(NCCC1=CCCCC1)c1ccc2c(=O)n3nc(Nc4ccccc4)sc3nc2c1	inactive: 87%
Cc1ccc2ncc(C(=O)N3CCN(c4ccccc4F)CC3)c(=O)n2c1	inactive: 102%
CCOC(=O)N1CCc2c(sc3c2c(=O)n(Cc2ccccc2)c(=O)n3Cc2ccccc2Cl)C1	inactive: 90%
Cc1ccc(S(=O)(=O)N(CC(=O)NCCc2ccc(Cl)cc2)c2ccccc2C)cc1	active: 49%
CCc1ccc(OCC(=O)N(Cc2ccc(C)o2)C2CCS(=O)(=O)C2)cc1 (configuration not stated)	inactive: 110%
CCc1ccccc1NC(=O)N1CCc2c([nH]c3ccccc23)C1c1ccc(C)cc1 (configuration not stated)	inactive: 76%
COc1ccc(CCNC(=O)c2cnn(-c3ccc(F)cc3)c2C2CCN(C(=O)OC(C)(C)C)CC2)c(OC)c1	inactive: 87%
Cc1ccc(CSc2oc(-c3cccs3)nc2S(=O)(=O)c2ccccc2)cc1	inactive: 65%
CC(=O)c1ccc(N2CCN(c3ncnc4c3nc3n4CCCC3)CC2)cc1	inactive: 75%
COc1ccc(CCNC(=O)Cc2c(C)c3c(cc(C)c4c(C)c(C)oc43)oc2=O)cc1	inactive: 88%
O=C1CCCC/C1=N\Nc1ccc(N2CCCCC2)cc1	inactive: 90%
COCCCNC(=O)c1ccc(-n2c(-c3ccccc3)cc3c2CCC(C)C3)cc1 (configuration not stated)	inactive: 97%
COc1cccc(N2CCN(C(=O)c3cccn3-c3nnc(N4CCCC4)s3)CC2)c1	inactive: 92%
Cc1cc(NC(=O)OC2CCCC2)ccc1NC(=O)OC1CCCCC1	inactive: 75%
Cc1ccnc(NC(=O)Cc2ccc(F)cc2)n1	inactive: 101%
Cc1coc2c(C)c3oc(=O)c(CC(=O)NCCc4ccc(Cl)cc4)c(C)c3cc12	inactive: 82%
C=CCc1c(C)nc2nc(SCC(=O)Nc3ccc(C)c(C)c3)nn2c1C	inactive: 75%

Structure (SMILES)	survival
COc1ccc(NC(=O)C2CCCN(S(=O)(=O)c3ccc4c(c3)oc(=O)n4C)C2)c(OC)c1 (configuration not stated)	inactive: 116%
O=C(COc1ccccc1F)Nc1nnc(SCc2cc(=O)c3ccccc3[nH]2)s1	inactive: 80%
Cc1cccc(CSc2nc(-c3cccs3)ccc2C#N)c1	active: 18%
CCCn1c(=O)c2sccc2n2c(CCCC(=O)Nc3ccc(Oc4ccc(Cl)cc4)cc3)nnc12	inactive: 98%
Cc1ccc(NC(=O)c2ccc(CN3C(=O)CCn4nc(C)cc43)cc2)c(Cl)c1	inactive: 82%
CC(=O)c1ccc(NS(=O)(=O)c2ccc(-c3cc(C)no3)s2)cc1	inactive: 122%
CCOc1ccc(CCNC(=O)C2CCN(C(=O)c3cc4sccc4n3CC)CC2)cc1OCC	inactive: 86%
CCCCOc1ccc(S(=O)(=O)Nc2ccc(-c3ccc(N4CCC(C)CC4)nn3)cc2)cc1	inactive: 60%
Cc1cccc(NC2CC(=O)N(c3cccc(Cl)c3)C2=O)c1 (configuration not stated)	inactive: 79%
COc1ccc(CCN2C(=O)c3oc4cc(C)cc(C)c4c(=O)c3C2c2ccccc2F)cc1OC (configuration not stated)	inactive: 70%
COc1cccc(-c2nnc(SCC(=O)NC3CCCCC3)o2)c1	inactive: 73%
O=C(CSc1nnc2c3c4c(sc3ncn12)CCCC4)Nc1nccs1	inactive: 86%
O=C(Cn1nnc2c(cnn2-c2ccccc2)c1=O)N(c1ccccc1)c1ccccc1	inactive: 101%
CCC1CN(S(=O)(=O)c2cc(-c3onc(C)c3C)ccc2C)c2cc(Cl)ccc2O1 (configuration not stated)	inactive: 72%
NC(=O)C1(N2CCCCC2)CCN(C(=O)Nc2ccc(F)cc2F)CC1	inactive: 112%
Cc1cc(C)c2c(NCc3ccc(N4CCCCC4)cc3)n[nH]c2n1	inactive: 93%
CCOC(=O)N1CCC2(CC1)OC(=O)C(C)=C2C(=O)NCc1cccc(F)c1	inactive: 73%
CCCc1nc2sc3c(c2c(=O)n1N)CCCC3	inactive: 97%
Cc1cccc(NC(=O)CN2C(=O)c3cccc4cccc2c34)c1C	inactive: 54%
